Measurements as given in the GPR68 mutational scans of Howard et al. (2025).
Scores whose standard error is large were omitted. Not listed are two conditions whose scores span a narrow range. Read del as a deletion of the residues named and ins as an insertion between two positions. For some of these results: How much ogerin was present is not stated here.

B1: GPR68, Q15743 (parent)
chain: MGNITADNSSMSCTIDHTIHQTLAPVVYVTVLVVGFPANCLSLYFGYLQIKARNELGVYLCNLTVADLFYICSLPFWLQYVLQHDNWSHGDLSCQVCGILLYENIYISVGFLCCISVDRYLAVAHPFRFHQFRTLKAAVGVSVVIWAKELLTSIYFLMHEEVIEDENQHRVCFEHYPIQAWQRAINYYRFLVGFLFPICLLLASYQGILRAVRRSHGTQKSRKDQIQRLVLSTVVIFLACFLPYHVLLLVRSVWEASCDFAKGVFNAYHFSLLLTSFNCVADPVLYCFVSETTHRDLARLRGACLAFLTCSRTGRAREAYPLGAPEASGKSGAQGEEPELLTKLHPAFQTPNSPGSGGFPTGRLA

Columns and labels:
[1] = variants of: B1; test: cAMP reporter score (Enrich2 score, wild type = 0); higher = more signal; HEK293T, FACS bins
[2] = variants of: B1; test: surface expression score (Enrich2 score, wild type = 0); higher = more signal; HEK293T, FACS bins

Row | Variant | cAMP reporter score ([1]; pH 5.5) | cAMP reporter score ([1]; pH 6) | cAMP reporter score ([1]; pH 6, modulator: ogerin) | cAMP reporter score ([1]; pH 6.5, modulator: ogerin) | surface expression score [2]
1 | A327R | 0.795 | 0.078 | 0.872 | -0.058 | 1.46
2 | A327F | 0.689 | -0.152 | 0.979 | 0.366 | -0.041
3 | A327W | 0.194 | 0.05 | -0.115 | 0.045 | -0.321
4 | A327S | -0.559 | -0.986 | -1.12 | -0.91 | -0.831
5 | A327V | 0.381 | -0.254 | 0.407 | 0.994 | 0.538
6 | A327M | 1.45 | 0.176 | 0.734 | 0.821 | 0.61
7 | A327P | 0.427 | 0.935 | 0.071 | 0.049 | 0.967
8 | A327L | -0.031 | – | -0.082 | -0.904 | -0.071
9 | A327G | 0.308 | -0.283 | -0.001 | 0.234 | 0.639
10 | A327C | -0.346 | 1.15 | -0.602 | 1.65 | -0.23
11 | A327Q | -0.231 | -0.569 | 0.308 | -0.042 | 0.31
12 | S331_G332insG | 0.283 | – | 0.424 | 0.489 | 0.879
13 | S331_G332del | 0.864 | -0.4 | 0.418 | 0.465 | 0.45
14 | G332K | 0.112 | -0.169 | 0.486 | 0.009 | 0.537
15 | G332T | -0.053 | -1.14 | -0.266 | -0.456 | -0.117
16 | G332Q | 0.795 | 0.673 | 1.04 | 1.05 | 1.2

Row | Variant | cAMP reporter score ([1]; pH 5.5) | cAMP reporter score ([1]; pH 6) | cAMP reporter score ([1]; pH 6, modulator: ogerin) | cAMP reporter score ([1]; pH 6.5, modulator: ogerin) | surface expression score [2]
17 | G332P | 0.514 | 0.588 | 0.629 | 0.262 | 0.772
18 | G332S | 0.756 | 0.394 | 1.2 | 0.274 | 0.415
19 | G332V | 0.508 | 0.214 | -0.074 | 0.706 | -0.049
20 | G332D | -0.123 | -0.018 | -0.451 | -0.103 | -0.099
21 | G332C | 0.419 | -0.044 | 0.528 | 0.75 | 0.602
22 | G332F | 1.08 | -0.963 | 0.63 | 0.56 | 0.969
23 | G332I | 1.37 | 0.064 | 1.59 | 0.075 | -0.237
24 | G332N | 0.255 | -0.258 | 0.326 | 0.188 | 0.179
25 | G332R | 1.15 | 0.461 | 1.75 | 1.4 | 1
26 | G332A | 1.01 | -0.007 | 0.771 | 0.641 | 0.58
27 | G332E | 0.315 | -0.426 | 0.555 | 0.702 | 1.08
28 | G332M | 0.932 | – | 0.916 | – | 2.83
29 | G332W | 0.659 | -0.217 | 0.526 | 0.294 | 0.597
30 | G332Y | 0.291 | -0.455 | 0.228 | -0.56 | -0.014
31 | G332L | -0.373 | 0.201 | -0.599 | -0.401 | -0.476
